# In PubChem BioAssay AID504333 (National Center for Advancing Translational Sciences (NCATS), 2011):
# Hit rate of the full screen: of about 360,000 compounds, about 16,000 (4.4%) were called active. This list was built around the results that the source calls inconclusive (neither active nor inactive); the mix of calls is not that of the screen. Calls come from the whole dose curve; as a rule, active = well fitted inhibition curve with a large enough effect; inconclusive = small, poorly fitted or top-dose-only effect; inactive = no such curve, though single readings can be large or run the other way. Potencies beside an inconclusive call are fits to weak or partial responses and may not hold up.
# Molecular target: Bromodomain adjacent to zinc finger domain protein 2B (Homo sapiens) (UniProt Q9UIF8)
# Assay: qHTS Assay for Inhibitors of BAZ2B; note: nearly all actives have a fitted effect of over 60% in size
# Details: AlphaScreen BAZ2B-H3K14Ac peptide displacement; series mostly up to 114 µM
# Summary of the method: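 Compounds, titrated to a top concentration of 110 uM, were incubated 30 min at room temperature with preformed BAZ2B/acetyl-K14 H3 peptide complex (50 nM each). Proximity signal was measured by AlphaScreen after 20 min with beads.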
# Potency is the fitted concentration of half-maximal effect; tags give direction and shape of the fitted curve.
# Sequence of UniProt Q9UIF8 (Q9UIF8 whole entry, looked up, the tested form may be a part): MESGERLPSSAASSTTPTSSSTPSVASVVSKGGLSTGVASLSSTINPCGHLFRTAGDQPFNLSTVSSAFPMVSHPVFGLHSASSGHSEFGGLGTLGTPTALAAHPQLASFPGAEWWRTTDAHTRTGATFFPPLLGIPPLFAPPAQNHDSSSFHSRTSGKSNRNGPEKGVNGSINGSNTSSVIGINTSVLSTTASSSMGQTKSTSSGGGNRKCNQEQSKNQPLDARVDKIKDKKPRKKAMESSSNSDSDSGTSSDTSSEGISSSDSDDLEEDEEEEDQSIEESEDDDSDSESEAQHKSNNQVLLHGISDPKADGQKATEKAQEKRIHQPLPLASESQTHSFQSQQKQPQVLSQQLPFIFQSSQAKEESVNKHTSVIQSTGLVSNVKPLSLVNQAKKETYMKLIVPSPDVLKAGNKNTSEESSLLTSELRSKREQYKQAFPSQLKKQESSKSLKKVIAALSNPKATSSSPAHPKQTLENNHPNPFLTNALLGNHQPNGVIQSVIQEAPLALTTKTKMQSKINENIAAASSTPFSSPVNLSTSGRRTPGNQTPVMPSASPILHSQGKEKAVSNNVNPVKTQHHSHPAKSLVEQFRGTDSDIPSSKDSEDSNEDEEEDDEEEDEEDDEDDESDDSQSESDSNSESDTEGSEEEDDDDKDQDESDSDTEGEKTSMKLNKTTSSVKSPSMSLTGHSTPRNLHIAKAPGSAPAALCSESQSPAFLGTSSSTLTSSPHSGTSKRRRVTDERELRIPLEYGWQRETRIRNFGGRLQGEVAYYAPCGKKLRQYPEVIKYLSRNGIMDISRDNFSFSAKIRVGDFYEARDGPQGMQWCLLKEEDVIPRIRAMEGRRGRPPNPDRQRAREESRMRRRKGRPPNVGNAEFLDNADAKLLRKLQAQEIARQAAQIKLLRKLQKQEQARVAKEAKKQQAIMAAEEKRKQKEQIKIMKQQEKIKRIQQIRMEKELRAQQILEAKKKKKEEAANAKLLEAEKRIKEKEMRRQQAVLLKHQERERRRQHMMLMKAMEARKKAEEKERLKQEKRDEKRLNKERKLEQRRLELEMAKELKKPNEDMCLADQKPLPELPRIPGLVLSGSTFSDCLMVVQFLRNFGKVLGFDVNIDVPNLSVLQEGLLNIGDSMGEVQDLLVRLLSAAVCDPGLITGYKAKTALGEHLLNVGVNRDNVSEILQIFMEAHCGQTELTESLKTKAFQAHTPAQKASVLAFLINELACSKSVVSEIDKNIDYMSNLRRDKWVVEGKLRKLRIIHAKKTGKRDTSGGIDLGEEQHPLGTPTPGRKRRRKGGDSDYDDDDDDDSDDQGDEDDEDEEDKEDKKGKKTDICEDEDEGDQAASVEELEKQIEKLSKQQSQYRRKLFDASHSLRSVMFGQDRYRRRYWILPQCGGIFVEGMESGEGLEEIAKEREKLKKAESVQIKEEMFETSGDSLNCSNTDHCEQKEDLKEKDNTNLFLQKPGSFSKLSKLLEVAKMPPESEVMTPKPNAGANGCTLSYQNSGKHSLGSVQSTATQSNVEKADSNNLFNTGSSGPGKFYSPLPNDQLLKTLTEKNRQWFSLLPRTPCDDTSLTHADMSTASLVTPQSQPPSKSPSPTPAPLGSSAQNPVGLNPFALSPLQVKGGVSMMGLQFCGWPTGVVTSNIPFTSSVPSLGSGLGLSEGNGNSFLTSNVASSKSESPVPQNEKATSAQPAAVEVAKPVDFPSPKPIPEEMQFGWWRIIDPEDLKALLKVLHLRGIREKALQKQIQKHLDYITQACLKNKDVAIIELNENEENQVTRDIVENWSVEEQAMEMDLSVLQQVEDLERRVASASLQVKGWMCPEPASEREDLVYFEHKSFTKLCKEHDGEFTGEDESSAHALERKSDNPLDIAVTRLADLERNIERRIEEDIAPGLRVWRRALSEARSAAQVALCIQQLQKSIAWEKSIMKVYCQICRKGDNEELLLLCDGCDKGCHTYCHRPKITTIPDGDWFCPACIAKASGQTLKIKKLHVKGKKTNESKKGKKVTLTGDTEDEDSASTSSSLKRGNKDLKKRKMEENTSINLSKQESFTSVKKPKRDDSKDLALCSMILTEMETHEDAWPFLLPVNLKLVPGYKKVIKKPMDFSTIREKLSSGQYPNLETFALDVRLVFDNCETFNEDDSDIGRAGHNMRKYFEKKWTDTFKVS
row,Compound,Potency
1,O=C(Nc1ccccc1)C(=O)c1cn(CC(=O)N2CCCCC2)c2ccccc12,inactive
2,COc1ccc(C(=O)N[C@H](C(=O)NCC2CCCCC2)C(C)C)cc1,"inconclusive: 35.5 µM [inhibitor, single point]"
3,Cc1ccccc1-c1nc(CN2CCC(C(=O)NCCc3ccccc3)CC2)c(C)o1,"inconclusive: 28.2 µM [inhibitor, full curve, poor fit]"
4,COc1cccc(N(CC(=O)N2CCOCC2)S(C)(=O)=O)c1,inactive
5,CCOc1ccc(N(C)c2ccc(/C=C3/SC(=S)NC3=O)cc2)cc1,active: 50.1 µM
6,CC(=O)c1c(C)[nH]c(C(=O)NC2=NCCS2)c1C,active: 50.1 µM
7,COC(=O)C1=C(C)N(C)C(=S)NC1c1c(OC)ccc2ccccc12 (configuration not stated),"inconclusive: 70.8 µM [inhibitor, single point]"
8,CCOC(=O)c1[nH]c2cc(OC)c(OC)cc2c1NC(=O)CN(C)C1CCCCC1,"inconclusive: 79.4 µM [inhibitor, single point]"
9,COc1ccc(CN2CCN(Cc3ccccc3C(F)(F)F)CC2)c(OC)c1,active: 28.2 µM
10,COc1ccc(C(=O)N2N=C(c3ccc(NS(C)(=O)=O)cc3)CC2c2cccs2)cc1 (configuration not stated),inactive
11,Cc1ccnc(NC(=S)NC(=O)c2cccs2)c1,inactive
12,O=S(=O)(Nc1cccnc1)c1ccccc1,inactive
13,CSc1n[nH]c(NC(C)=O)n1,"inconclusive: 100 µM [inhibitor, single point]"
14,CC1=NN(c2ccc(C)c(C)c2)C(=O)C1C(c1cccc(O)c1)C1C(=O)N(c2ccc(C)c(C)c2)N=C1C (configuration not stated),"inconclusive: 28.2 µM [inhibitor, single point]"
15,CCCCN(C(=O)c1c(C)[nH]c(C(=O)OCC)c1C)c1ccccc1,"inconclusive: 50.1 µM [inhibitor, partial curve]"
16,COc1ccc(Cl)cc1N1Cc2ccccc2C1,"inconclusive: 89.1 µM [inhibitor, single point]"
17,CCOc1ccc(-c2cc3c(=O)n(Cc4nc(-c5ccc(OC(C)C)cc5)oc4C)ccn3n2)cc1Cl,inactive
18,Cc1ccc(C(=O)C=CNNC(=O)c2ccccc2)cc1,"inconclusive: 44.7 µM [inhibitor, partial curve]"
19,COc1ccc(CCNS(=O)(=O)c2cccc([N+](=O)[O-])c2)cc1,"inconclusive: 89.1 µM [inhibitor, single point]"
20,O=C(CSc1nc(-c2ccccc2)cs1)Nc1cccc([N+](=O)[O-])c1,"inconclusive: 79.4 µM [inhibitor, partial curve]"
21,CCOc1ccc(N(CC)S(=O)(=O)N2CCCC(C(=O)Nc3cc(Cl)ccc3C)C2)cc1 (configuration not stated),inactive
22,CC12CCC(=O)N1C(C(=O)OCC(=O)Nc1sccc1C#N)CS2 (configuration not stated),"inconclusive: 89.1 µM [inhibitor, single point]"
23,CCOc1ccc(OCc2cccc(C(=O)Nc3ccc(CN4CCCCC4)cc3)c2)cc1,"inconclusive: 79.4 µM [inhibitor, single point]"
24,COc1ccc2c(c1)c(C(=O)N/N=C/c1ccc(Br)cc1)c(C)n2C,inactive

row,Compound,Potency
1,CCC(=O)c1ccc(OCC(=O)OC(C)C(=O)N2CCc3ccccc32)cc1 (configuration not stated),inactive
2,CCOc1ccc(NC(=O)c2ccco2)cc1S(=O)(=O)N1CCCC1,"inconclusive: 89.1 µM [inhibitor, single point]"
3,COC(=O)c1ccc(C2/C(=C(/O)c3ccc(Cl)cc3)C(=O)C(=O)N2C2CCS(=O)(=O)C2)cc1 (configuration not stated),"inconclusive: 50.1 µM [inhibitor, partial curve]"
4,CCOC(=O)c1c(C)[nH]c(C)c1S(=O)(=O)NCc1cc(C)ccc1C,active: 50.1 µM
5,O=c1c2ccccc2c(C=NC2CCN(Cc3ccccc3)CC2)c(O)n1Cc1ccc2c(c1)OCO2,active: 8.91 µM
6,CC(=O)Nc1ccc2c(c1)nc1n2CCN(C2CCCCC2)C1,"inconclusive: 79.4 µM [inhibitor, single point]"
7,Cc1ccc(C(=O)NCCCCNC(=O)c2ccc(C)o2)o1,"inconclusive: 89.1 µM [inhibitor, single point]"
8,Cc1cc(C(C)(C)C)ccc1OCCN(C)C,active: 28.2 µM
9,CCCCC(=O)Oc1ccc2oc(-c3ccc(OC)cc3)cc(=O)c2c1,inactive
10,C[C@@H]1NS(=O)(=O)[C@H]2C[C@@H]3C=C[C@]2(O3)[C@H]1OC(=O)c1ccc(C(C)(C)C)cc1,inactive
11,Cc1ccc2c(c1)c(=O)c1c3n2CCN(C(=O)CCl)C3CC1 (configuration not stated),active: 39.8 µM
12,Cc1ccc(-n2nc3c(=O)n(CCCC(=O)NCc4ccccc4C)nc(C)c3c2C)cc1,"inconclusive: 89.1 µM [inhibitor, single point]"
13,Cc1ccc(C)c(NC(=O)CSc2nnc(CCNC(=O)OC(C)(C)C)o2)c1,inactive
14,COc1ccc(N2C(=O)CN=C2Nc2nc(C)cc(C)n2)cc1OC,"inconclusive: 3.55 µM [inhibitor, partial curve, poor fit]"
15,O=C(Nc1cccnc1)c1c(O)c2cccc3c2n(c1=O)CC3,inactive
16,S=C(NNc1ccnc2cc(Cl)ccc12)Nc1ccc(Cl)cc1Cl,"inconclusive: 35.5 µM [inhibitor, partial curve]"
17,COc1cc(/C=C/C2=CC(C)(C)NC(=S)N2)cc(OC)c1OC,inactive
18,C/C=C/c1ccc(OCCOCCNCc2ccccc2)c(OC)c1,active: 50.1 µM
19,CCN(CC)S(=O)(=O)c1ccc2c(c1)nc(CN(C)C(=O)Nc1ccc(Cl)cc1)n2C,inactive
20,CCC(=O)Nc1nc(C)c(-c2csc(Nc3cccc(C(=O)O)c3)n2)s1,"inconclusive: 56.2 µM [inhibitor, partial curve]"
21,Cc1cccc(NC2=NCC(=O)N2Cc2cccs2)c1,"inconclusive: 56.2 µM [inhibitor, partial curve]"
22,Cc1ccc(SCCNC(=O)/C=C/c2ccc([N+](=O)[O-])cc2)cc1,"inconclusive: 35.5 µM [inhibitor, full curve]"
23,O=C(/C=C/c1ccc(Br)o1)NCCCN1CCOCC1,"inconclusive: 89.1 µM [inhibitor, single point]"
